The record followed here is the supplement of paper PMC9446081.

In all, about 39,000 compounds went through this assay and about 220 (0.56%) showed activity. The list shows a part of the results.
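Also: static incubation at 37 °C against the wild-type strain, values averaged over two biological replicates.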

For this experiment, the system named is Escherichia coli K-12 BW25113. Briefly: relative growth (OD600 normalised to plate interquartile mean) (fraction); higher = less growth inhibition, active = 0.2 or less. The settings on record: 50 µM; LB; incubation time: overnight (16-24 h).
Regarding `C[C@@H]1CN([C@H](C)CO)C(=O)c2cc(NS(=O)(=O)c3ccc(F)cc3)ccc2O[C@H]1CN(C)Cc1ccncc1`, the relative growth is inactive: 1.02.
As to `CO[C@H]1C[C@H](O[C@@H]2/C(C)=C/C[C@@H]3C[C@@H](C[C@]4(CC[C@H](C)[C@@H](C5CCCCC5)O4)O3)OC(=O)[C@@H]3C=C(C)/C(=N/O)[C@H]4OC/C(=C\C=C\[C@@H]2C)[C@]43O)O[C@@H](C)[C@@H]1O`, the relative growth was inactive: 1.01.
For `Cc1ccc(S(=O)(=O)Nc2ccc3c(c2)C(=O)N([C@H](C)CO)C[C@H](C)[C@H](CN(C)S(C)(=O)=O)O3)cc1`, the relative growth is inactive: 1.01.
The same measure for `C[C@@H]1CN([C@H](C)CO)C(=O)Cc2cc(NC(=O)CCN3CCOCC3)ccc2O[C@H]1CN(C)Cc1ccncc1`: inactive: 0.991.
Regarding `COCC(=O)N1C[C@H](C)[C@H](OC)CN(C)C(=O)c2cc(NC(=O)c3ccc(F)cc3)ccc2OC[C@@H]1C`, the relative growth was inactive: 0.986.
In the case of `C[C@H]1CN([C@@H](C)CO)C(=O)c2cc(NC(=O)Nc3ccccc3)ccc2O[C@H]1CN(C)Cc1ccc(Cl)c(Cl)c1`, the relative growth was inactive: 0.986.
The same measure for `COc1ccc(NC(=O)Nc2ccc3c(c2)C(=O)N([C@@H](C)CO)C[C@H](C)[C@H](CN(C)Cc2ccc4c(c2)OCO4)OCCCC[C@@H](C)O3)cc1`: inactive: 1.01.
In the case of `COc1ccc(NC(=O)Nc2ccc3c(c2)[C@@H]2C[C@@H](CC(=O)N4CCN(C)CC4)O[C@@H](CO)[C@@H]2O3)cc1`, the relative growth is inactive: 0.995.
With `O=c1[nH]c2c(=O)nc[nH]c2nc1-c1ccccc1`, the relative growth is inactive: 1.
As to `CCS(=O)(=O)N1C[C@]2(CN(Cc3cccc(c3)Cl)[C@@H](CO)c3c2c2ccc(cc2n3C)OC)C1`, the relative growth was inactive: 1.02.
With `CC(C)CC#Cc1ccc2c(c1)O[C@@H](CN(C)C(=O)C1CCOCC1)[C@@H](C)CN([C@H](C)CO)S2(=O)=O` the figure was inactive: 0.923.
Consider `C1CNCCN1`, for which the relative growth is inactive: 1.02.
The same measure for `C[C@H](O)C#Cc1ccc2c(c1)O[C@@H](CN(C)C(=O)CN(C)C)[C@H](C)CN([C@@H](C)CO)S2(=O)=O`: inactive: 1.01.
With `C[C@H]1CN([C@@H](C)CO)C(=O)c2cc(NS(C)(=O)=O)ccc2O[C@H]1CN(C)Cc1ccc(C(=O)Nc2ccccc2N)cc1` the figure was inactive: 1.01; with `COc1ccc(S(=O)(=O)N(C)C[C@@H]2Oc3cc(C#CC4CCCC4)ccc3S(=O)(=O)N([C@@H](C)CO)C[C@H]2C)cc1`, inactive: 1.05.
Turning to `C[C@@H]1CN([C@H](C)CO)C(=O)c2cc(NS(=O)(=O)c3ccc(Cl)cc3)ccc2O[C@@H](C)CCCCO[C@H]1CN(C)S(=O)(=O)c1ccc(F)cc1`, the relative growth is inactive: 1.06.
The same measure for `COC(=O)[C@H]1C2C(=O)N(C3CC3)C[C@]23C=C[C@H]1O3` (stereo partly specified): inactive: 1.04.
Take `C[C@@H]1COC(=O)[C@@H](Cc2ccc(F)cc2)CCC=CC[C@@H](CC(=O)N[C@H](CO)Cc2ccccc2)C(=O)N1`: the relative growth was inactive: 1.02.
With `C[C@@H]1CN([C@H](C)CO)C(=O)Cc2cc(NS(=O)(=O)c3cn(C)cn3)ccc2O[C@H]1CN(C)S(C)(=O)=O` the figure was inactive: 0.878.
Take `C[C@@H]1CN([C@H](C)CO)C(=O)c2cc(NS(=O)(=O)c3cccs3)ccc2O[C@H]1CN(C)C(=O)Nc1cccc2ccccc12`: the relative growth was inactive: 1.03.
As for `COc1ccc(cc1)NC(=O)N1CC[C@]2(CC1)CN([C@@H](CO)c1[nH]c3cc(ccc3c12)OC)C(=O)CN1CCOCC1`, the relative growth is inactive: 1.
With `C[C@H](CO)N1C[C@H](C)[C@H](CN(C)C(=O)Nc2ccc(C(F)(F)F)cc2)Oc2ccc(NC(=O)C3CCCCC3)cc2CC1=O` the figure was inactive: 0.993; with `C[C@H](CO)N1C[C@H](C)[C@@H](CN(C)C(=O)Nc2cccc3ccccc23)Oc2ccc(NC(=O)Nc3ccc4c(c3)OCO4)cc2C1=O`, inactive: 0.957; with `Cn1cnc(S(=O)(=O)N2C[C@@H](O)COC[C@H]3O[C@H](CC(=O)NC4Cc5ccccc5C4)CC[C@@H]32)c1`, inactive: 0.878.
As to `N[C@@H](CC(=O)N1CCn2c(nnc2C(F)(F)F)C1)Cc1[nH]nc2c(F)c(F)ccc12`, the relative growth was inactive: 1.02.
For `C[C@H](CO)N1C[C@H](C)[C@@H](CN(C)Cc2ccccc2)OCCCC[C@H](C)Oc2ccc(NS(=O)(=O)c3ccc(F)cc3)cc2C1=O`, the relative growth was inactive: 1.03.
The same measure for `CC(C)CC#Cc1ccc2c(c1)O[C@H](CN(C)C(=O)Cc1ccccn1)[C@@H](C)CN([C@@H](C)CO)S2(=O)=O`: inactive: 1; for `NC(=O)c1cccc(Br)n1`: inactive: 1; for `Cc1cc2nc3ccc(N(C)C)cc3[s+]c2cc1N.[Cl-]`: inactive: 1.1.
The same measure for `C[C@H](CO)N1C[C@H](C)[C@@H](CN(C)Cc2ccc(C(=O)O)cc2)Oc2ccc(NC(=O)Nc3ccc(C(F)(F)F)cc3)cc2C1=O`: inactive: 0.948; for `Cc1ccc(S[C@]2(C(=O)NCc3ccccc3)CC(=O)N(Cc3ccccc3Cl)[C@@H]2c2ccc(CO)cc2I)cc1`: inactive: 1.01; for `CCS(=O)(=O)N1C[C@]2(CCN(CC2)C(=O)c2cccnc2)c2c(n(c3cc(ccc23)OC)C)[C@@H]1CO`: inactive: 1.01.
As for `CO[C@H](C(=O)N(C)C[C@H]1OCc2ccccc2-c2c(n(C)c3ccccc23)C(=O)N([C@@H](C)CO)C[C@@H]1C)c1ccccc1`, the relative growth was inactive: 0.994.
The same measure for `C[C@@H]1CCCCO[C@@H](CN(C)Cc2ccccc2)[C@H](C)CN([C@@H](C)CO)C(=O)c2cc(NC(=O)Cc3ccccc3)ccc2O1`: inactive: 0.991; for `C[C@@H]1CN([C@H](C)CO)C(=O)CCCn2nncc2CO[C@@H]1CN(C)S(=O)(=O)c1ccc2c(c1)OCCCO2`: inactive: 1; for `CC12C=CC(=O)C=C1CCC1C2C(=O)CC2(C)C1CCC2(O)C(=O)CO` (stereo unspecified): inactive: 1.02.
The same measure for `COc1c2occc2c(OC)c2c(=O)cc(C)oc12`: inactive: 1.09; for `Cc1ccc(S(=O)(=O)N(C)C[C@H]2Oc3c(NC(=O)c4cnccn4)cccc3C(=O)N([C@H](C)CO)C[C@H]2C)cc1`: inactive: 0.987.
Turning to `C[C@@H]1CCCCO[C@H](CN(C)Cc2ccccc2)[C@@H](C)CN([C@@H](C)CO)C(=O)c2cc(NC(=O)NC3CCCCC3)ccc2O1`, the relative growth was inactive: 0.91.
The same measure for `Cn1sccc1=O`: active: 0.0369.
The same measure for `C[C@@H]1CCCCO[C@@H](CN(C)CC2CCCCC2)[C@@H](C)CN([C@@H](C)CO)C(=O)c2cc(NC(=O)Nc3ccc(F)cc3)ccc2O1`: inactive: 1; for `COc1ccc(S(=O)(=O)N[C@@H]2C=C[C@H](CC(=O)N3CCC(Cc4ccccc4)CC3)O[C@H]2CO)cc1`: inactive: 0.982; for `O=C(C[C@H]1CC[C@@H](NC(=O)c2ccc(F)cc2)[C@@H](CO)O1)NCc1ccncn1`: inactive: 1.04.
With `O=C(NCC(F)(F)F)[C@H]1[C@H](CO)[C@H]2Cn3c(cccc3=O)[C@@H]1N2C(=O)C1CCC1` the figure was inactive: 1.03; with `Cc1noc(C)c1S(=O)(=O)N(C)C[C@H]1OCCCC[C@H](C)Oc2ccc(NC(=O)Nc3cccc4ccccc34)cc2C(=O)N([C@H](C)CO)C[C@H]1C`, inactive: 1.02; with `NC1CCC(O)CC1` (stereo unspecified), inactive: 1.07.
As for `CC(C)NC(=O)N(C)C[C@H]1Oc2c(NS(=O)(=O)c3ccc(Cl)cc3)cccc2C(=O)N([C@@H](C)CO)C[C@@H]1C`, the relative growth was inactive: 1.03.
The same measure for `C[C@H](CO)N1C[C@H](C)[C@H](CN(C)S(=O)(=O)c2cn(C)cn2)Oc2c(NC(=O)c3ccc(-c4nccs4)cc3)cccc2C1=O`: inactive: 0.984.
As to `COc1ccc(S(=O)(=O)Nc2ccc3c(c2)C(=O)N([C@H](C)CO)C[C@@H](C)[C@@H](CN(C)S(C)(=O)=O)OCCCC[C@@H](C)O3)cc1`, the relative growth was inactive: 0.996.
With `O=c1oc2ccccc2c(O)c1Cc1c(O)c2ccccc2oc1=O` the figure was inactive: 0.939; with `COCC#Cc1ccc2c(c1)O[C@H](CN(C)C(=O)Nc1ccccc1F)[C@H](C)CN([C@@H](C)CO)S2(=O)=O`, inactive: 0.976; with `C[C@@H]1CN([C@@H](C)CO)C(=O)c2c(c3ccccc3n2C)-c2ccccc2CO[C@H]1CN(C)Cc1cccc(O)c1`, inactive: 0.905.
The same measure for `C[C@H]1CCCCO[C@H](CN(C)C(=O)Nc2ccccc2)[C@@H](C)CN([C@@H](C)CO)C(=O)c2cc(NC(=O)Nc3ccccc3)ccc2O1`: inactive: 1.04; for `Cc1ccc(S(=O)(=O)Nc2ccc3c(c2)C(=O)N([C@H](C)CO)C[C@H](C)[C@@H](CN(C)S(=O)(=O)c2cn(C)cn2)O3)cc1`: inactive: 0.993; for `CN1CCN(C(=O)C[C@H]2CC[C@@H](NC(=O)c3ccc4c(c3)OCO4)[C@@H](CO)O2)CC1`: inactive: 0.972.
As to `C[C@H]1CN([C@@H](C)CO)C(=O)c2cccc(NC(=O)c3ccc(-c4nccs4)cc3)c2O[C@H]1CN(C)Cc1ccc(C(=O)Nc2ccccc2N)cc1`, the relative growth was inactive: 1.01.
With `C[C@@H]1CN([C@H](C)CO)C(=O)c2cccc(NC(=O)CCCCCC(=O)Nc3ccccc3N)c2O[C@H]1CN(C)C(=O)Nc1ccccc1`, the relative growth was inactive: 0.976.
`C[C@@H]1CN([C@@H](C)CO)C(=O)CCCn2nncc2CO[C@@H]1CN(C)S(=O)(=O)c1ccccc1C#N`: the relative growth was inactive: 0.963.
With `CCS(=O)(=O)Nc1ccc2c(c1)C(=O)N(C)[C@@H]1CC[C@H](CC(=O)N3CCN(C)CC3)O[C@H]1CO2`, the relative growth is inactive: 0.981.
Take `CCC(=O)Nc1ccc2c(c1)OC[C@@H](C)N(S(=O)(=O)c1cn(C)cn1)C[C@@H](C)[C@H](OC)CN(C)C2=O`: the relative growth is inactive: 0.993.
With `C[C@@H]1CCCCO[C@H](CN(C)S(=O)(=O)c2cccs2)[C@@H](C)CN([C@@H](C)CO)C(=O)c2cc(NC(=O)c3ccccc3)ccc2O1` the figure was inactive: 1.06.
